# Reference: PubChem BioAssay AID1030 (National Center for Advancing Translational Sciences (NCATS), 2008)
# Hit rate of the full screen: of about 220,000 compounds, about 16,000 (7.3%) were called active. The shares of active, inactive and inconclusive entries below differ from those in the screen. Calls follow the shape of the dose curve; as a rule, active = well fitted inhibition curve with a large enough effect (not every such curve was filed as active); inconclusive = small, poorly fitted or top-dose-only effect, or another doubt; inactive = no such curve, though single readings can be large or run the other way. No potency is given beside an inconclusive call; the fits are too rough.
# Target: Aldehyde dehydrogenase 1A1 (Homo sapiens) (UniProt P00352)
# Assay: qHTS Assay for Inhibitors of Aldehyde Dehydrogenase 1 (ALDH1A1);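 as to activity, negative = inhibition: plate controls were no enzyme wells and a reference inhibitor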
# Conditions: Purified ALDH1A1, NADH fluorescence, propionaldehyde substrate; series mostly up to 75.3 µM; activity, negative = inhibition: at the top concentration
# Potency is read from the fitted curve at half-maximal effect; tags tell the direction and shape of the fitted curve.
# UniProt P00352, sequence (P00352 whole entry, looked up): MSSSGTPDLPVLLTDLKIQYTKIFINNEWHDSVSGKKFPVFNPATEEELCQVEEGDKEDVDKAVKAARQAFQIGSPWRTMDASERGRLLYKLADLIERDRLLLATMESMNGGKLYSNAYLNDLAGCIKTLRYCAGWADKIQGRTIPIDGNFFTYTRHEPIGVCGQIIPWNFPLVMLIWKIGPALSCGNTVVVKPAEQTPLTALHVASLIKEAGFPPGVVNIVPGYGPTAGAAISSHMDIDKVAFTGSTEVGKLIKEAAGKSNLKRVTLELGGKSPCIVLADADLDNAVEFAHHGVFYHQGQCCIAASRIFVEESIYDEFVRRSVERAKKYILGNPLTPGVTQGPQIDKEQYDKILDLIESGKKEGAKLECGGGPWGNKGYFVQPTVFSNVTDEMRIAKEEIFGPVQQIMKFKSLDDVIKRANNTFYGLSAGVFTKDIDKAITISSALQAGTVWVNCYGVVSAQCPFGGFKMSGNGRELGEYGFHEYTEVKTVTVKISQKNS
Compound,"activity, negative = inhibition",Potency
Nc1nc(-c2cc(-c3cccc4ccccc34)nc(N)n2)cc(-c2cccc3ccccc23)n1,inactive: -7.6% [at 13.5 µM],–
O=C(C(c1ccccc1)c1ccccc1)N1CCN(Cc2ccccn2)CC1,–,"inconclusive [inhibitor, single point]"
CC(C)(C)n1nnnc1C(c1ccc(Cl)cc1)N1CCCc2ccccc21 (centres undefined),inactive: 0.196%,–
CCOc1ccc2[nH]c(=O)c(CN(CCO)C(c3nnnn3C3CCCCC3)C(C)C)cc2c1 (centres undefined),–,active: 12.6 µM
COC(=O)[C@@H](NC(=O)Nc1cc(Cl)ccc1C)C(C)C,–,"inconclusive [inhibitor, single point]"
COc1ccccc1C1CC(c2ccco2)=NN1S(C)(=O)=O (centres undefined),–,"inconclusive [inhibitor, single point]"
Cc1cc2c(ccc3[nH]onc32)n1,–,"inconclusive [inhibitor, single point]"
C/C(=N/OCc1ccc(Br)cc1)c1ccccn1,inactive: 3.7%,–
COc1cc2c(C(=O)c3ccccc3)c3c4c(cc(OC)c(OC)c4c2cc1OC)CCN3C,–,"inconclusive [inhibitor, single point]"
CC(C)C(NC(=O)C12CC3CC(CC(C3)C1)C2)C(=O)N/N=C/C1=C(N2CCOCC2)C(=C\c2ccc([N+](=O)[O-])cc2)/CC1 (centres undefined),–,"inconclusive [inhibitor, single point]"
Cc1cc(CNC(=O)c2cc(-c3ccccc3)nc3ccccc23)nn1C,–,"inconclusive [inhibitor, single point]"
O=C(C1CCCO1)N1CCN(Cc2nc3ccccc3c(=O)[nH]2)CC1 (centres undefined),–,"inconclusive [inhibitor, single point]"
CC(NC(=O)COC(=O)c1ccc([N+](=O)[O-])s1)c1ccccc1 (centres undefined),–,"inconclusive [inhibitor, single point]"
CCOc1cc(/C=N/Nc2cccc(C(=O)O)c2)ccc1OC(=O)c1ccccc1,–,active: 39.8 µM
CC(=O)c1ccc(O)c(CSc2nncn2C)c1,–,"inconclusive [inhibitor, single point]"
CN1/C(=C\C(=S)NC(=O)c2ccccc2Cl)C(C)(C)c2ccccc21,–,"inconclusive [inhibitor, single point]"
CCOC(=O)c1c(-c2ccc(C)o2)csc1NC(=S)NC(=O)c1ccc(F)cc1,–,"inconclusive [inhibitor, partial curve]"
Cc1ccc2cc3c(N)[nH]nc3nc2c1,–,"inconclusive [inhibitor, single point]"
C=CCNC(=O)c1sc(=S)n(-c2ccc(C(=O)OCC)cc2)c1N,–,active: 12.6 µM
CC1C(=O)C(C)C(c2ccco2)NC1c1ccco1 (centres undefined),–,"inconclusive [inhibitor, single point]"
COc1ccccc1-n1cnc2cc(NS(=O)(=O)c3ccc(Br)cc3)ccc21,–,"inconclusive [inhibitor, single point]"
CN(C1CCCCC1)S(=O)(=O)c1ccc2c(c1)c(=O)c(C(=O)NCCN1CCCC1)cn2C,–,active: 7.94 µM

Compound,"activity, negative = inhibition",Potency
O=C(O)c1cn(-c2ccccc2)nc1-c1ccncc1,–,"inconclusive [inhibitor, single point]"
CCCNC(=O)c1ccc2nc(-c3ccccc3)c(-c3ccccc3)nc2c1,–,"inconclusive [inhibitor, partial curve]"
CC(=O)/C(=N\Nc1ccccc1Cl)Sc1nnc(-c2ccccc2)n1-c1ccccc1,–,"inconclusive [inhibitor, single point]"
Cn1cc([N+](=O)[O-])c(C(=O)Nc2ccc(C3CCCCC3)cc2)n1,–,"inconclusive [inhibitor, partial curve]"
COc1cc(/C=C(\C#N)C(=O)Nc2cccc3ncccc23)cc(OC)c1OC,inactive: 4.27%,–
Cc1nnc(SCc2cc(=O)[nH]c(=S)[nH]2)s1,–,active: 12.6 µM
COc1cc(/C=C2\SC(=S)N(N(C)c3ccccc3)C2=O)ccc1O,–,"inconclusive [inhibitor, single point]"
COc1ccc(N2CCC(CNC(=S)Nc3cccc(C)c3)C2)cc1 (centres undefined),–,active: 25.1 µM
Cc1ccc(NC(=S)NCCc2ccccc2)c(C)c1,–,"inconclusive [inhibitor, full curve, poor fit]"
O=C(Nc1ccccc1Cl)N1CCN(c2ccccn2)CC1,–,"inconclusive [inhibitor, single point]"
O=C(O)c1ccc(Cl)c(NC(=S)NC(=O)c2ccccc2[N+](=O)[O-])c1,–,active: 22.4 µM
C=CCOc1c2ccc(C(=O)NCc3ccc(OC)cc3)cc2nn1C,–,"inconclusive [inhibitor, partial curve]"
Cc1cc(Cl)ccc1OCC(=O)NCC(=O)N/N=C/c1ccco1,–,"inconclusive [inhibitor, single point]"
COc1cc2c(cc1OC)C(COc1ccc3c(C)cc(=O)oc3c1)N(C(=O)c1ccco1)CC2 (centres undefined),–,"inconclusive [inhibitor, partial curve]"
Nc1ccccc1S(=O)(=O)O,inactive: -5.55%,–
CC(Sc1nc2ccccc2[nH]1)C(=O)Nc1ccc2c(c1)OCCO2 (centres undefined),–,"inconclusive [inhibitor, single point]"
Nc1c2c(nc3ccccc13)N(C1CCCCC1)CC2,–,"inconclusive [inhibitor, partial curve]"
S=C(NCCCN1CCOCC1)Nc1ccc(-c2nc3ccccc3[nH]2)cc1,–,"inconclusive [inhibitor, single point]"
C/C(=N\Nc1nc(-c2ccc(C)cc2C)cs1)c1cc2ccccc2oc1=O,–,"inconclusive [inhibitor, single point]"
O=C1CCCN1CCCNc1ncnc2c1[nH]c1ccc(Cl)cc12,–,"inconclusive [inhibitor, single point]"
Cc1ccoc1C(=O)Nc1ccc(CC(=O)O)cc1,inactive: 6.07%,–
CCOc1ccccc1CNC(=O)C1CCN(C(=O)c2sccc2-n2cccc2)CC1,–,active: 0.631 µM
